From the BET-seq Pho4 binding data (Le et al. 2018)
The list shows a part of the results. Values were computed here from the reads of four pooled replicates and scatter widely.

The sequences below were run against T1, Pho4 (S. cerevisiae) (UniProt P07270) (assay: relative binding free energy (BET-seq); higher = weaker binding). Settings: reference: library average.
T1 sequence: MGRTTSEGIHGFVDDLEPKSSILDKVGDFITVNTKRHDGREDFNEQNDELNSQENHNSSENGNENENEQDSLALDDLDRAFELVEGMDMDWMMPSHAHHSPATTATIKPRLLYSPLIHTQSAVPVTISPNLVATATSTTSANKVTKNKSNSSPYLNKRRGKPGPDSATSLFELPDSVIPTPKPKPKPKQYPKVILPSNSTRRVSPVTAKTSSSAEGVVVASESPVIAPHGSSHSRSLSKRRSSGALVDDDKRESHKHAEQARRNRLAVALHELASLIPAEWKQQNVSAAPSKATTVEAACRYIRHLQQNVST

| Sequence | relative binding free energy |
| --- | --- |
| ACGTGCACGTGTAGGG | -0.04 kcal/mol |
| TGAAGCACGTGACTGT | 0.03 kcal/mol |
| GGGCTCACGTGCGGGT | 0.08 kcal/mol |
| TACGACACGTGATGTG | 0.07 kcal/mol |
| TATTTCACGTGAAGTT | 0.42 kcal/mol |
| GTTGGCACGTGAGGTG | 0.07 kcal/mol |
| GATTGCACGTGTGGCT | 0.04 kcal/mol |
| GTTCACACGTGCGTGT | 0.06 kcal/mol |
| TGAAACACGTGGTATA | -0.05 kcal/mol |
| ACAGTCACGTGTGGTG | 0 kcal/mol |
| TGTGACACGTGTTTCG | 0.14 kcal/mol |
| ATATGCACGTGGTATG | -0.16 kcal/mol |
| TGGTTCACGTGCGGAT | 0.35 kcal/mol |
| GCTGTCACGTGGTGTC | 0.1 kcal/mol |
| TGTTACACGTGTTCGG | 0.06 kcal/mol |
| ATAGGCACGTGCGTGG | -0.18 kcal/mol |
| TATAGCACGTGGGGTA | -0.27 kcal/mol |
| TGATTCACGTGTGGCC | 0.29 kcal/mol |
| TTTATCACGTGGTTAC | -0.01 kcal/mol |
| TTTTGCACGTGAGGGG | 0.22 kcal/mol |
| TTTGTCACGTGAAATA | 0.31 kcal/mol |
| GGTTGCACGTGATGGA | 0.1 kcal/mol |
| TATTTCACGTGATAGG | 0.37 kcal/mol |
| AACTGCACGTGTTTGG | 0.18 kcal/mol |
| TGTCTCACGTGCTTGT | 0.12 kcal/mol |

| Sequence | relative binding free energy |
| --- | --- |
| CGGGTCACGTGTTTGC | 0.04 kcal/mol |
| GATCGCACGTGGTTGA | -0.06 kcal/mol |
| ACTAGCACGTGCGGGG | -0.11 kcal/mol |
| TTGGACACGTGGAGAT | 0.06 kcal/mol |
| TGCGACACGTGGGGGT | -0.01 kcal/mol |
| AATGTCACGTGGTGCC | 0.22 kcal/mol |
| AGTTACACGTGAGGAA | 0.26 kcal/mol |
| ATGTCCACGTGTGTTT | 0.01 kcal/mol |
| AGGTACACGTGTAAAG | 0.1 kcal/mol |
| GTGGACACGTGAGGTA | 0.29 kcal/mol |
| TATAGCACGTGGTGTA | -0.27 kcal/mol |
| GTTAACACGTGATGCG | 0.21 kcal/mol |
| GGAGACACGTGATGGA | 0.14 kcal/mol |
| TACGTCACGTGAGAGG | 0.22 kcal/mol |
| AGTTACACGTGCGTTT | 0.03 kcal/mol |
| TAAGTCACGTGCAAGG | 0.04 kcal/mol |
| GTGTACACGTGTCTGG | 0.03 kcal/mol |
| GCGAGCACGTGTGTTT | 0.07 kcal/mol |
| CAGGTCACGTGGTAGT | 0.07 kcal/mol |
| GGTTTCACGTGAGAAG | 0.44 kcal/mol |
| GTGTTCACGTGGAAAG | 0.33 kcal/mol |
| GGCCGCACGTGTGGTG | -0.05 kcal/mol |
| GATCGCACGTGTGGGG | 0.06 kcal/mol |
| ATTTTCACGTGTTCGA | 0.32 kcal/mol |
| TGTATCACGTGTTGCA | 0.02 kcal/mol |

| Sequence | relative binding free energy |
| --- | --- |
| TTAGTCACGTGTGGAA | 0.1 kcal/mol |
| GTTCACACGTGGGTGT | -0.11 kcal/mol |
| GGTTCCACGTGGATGT | 0.25 kcal/mol |
| GTGATCACGTGAAGTG | 0.12 kcal/mol |
| TGCGCCACGTGTGTGG | 0 kcal/mol |
| CGAGGCACGTGTTGAG | -0.06 kcal/mol |
| ATTAGCACGTGTGTGG | -0.11 kcal/mol |
| GGCGCCACGTGGGTGA | -0.11 kcal/mol |
| CTTGGCACGTGTATAT | -0.24 kcal/mol |
| ATAAACACGTGGTGAG | -0.02 kcal/mol |
| TTTTACACGTGTATCG | 0.18 kcal/mol |
| GCGCGCACGTGTGGTG | -0.09 kcal/mol |
| TTTTTCACGTGGAGGC | 0.34 kcal/mol |
| ATATGCACGTGTTTGA | -0.06 kcal/mol |
| GGGTTCACGTGTGATG | 0.39 kcal/mol |
| ACGAACACGTGGGGTT | -0.13 kcal/mol |
| AGCTGCACGTGCTGTG | 0.02 kcal/mol |
| TTGCGCACGTGGTTGA | -0.3 kcal/mol |
| GAAACCACGTGGGGGG | -0.15 kcal/mol |
| AGTGTCACGTGTAGCT | -0.11 kcal/mol |
| ACTGGCACGTGAGGGG | 0.09 kcal/mol |
| TGAAGCACGTGAGGTT | 0.16 kcal/mol |
| TGAGTCACGTGGGGAC | -0.03 kcal/mol |
| TTTGTCACGTGCTTTA | 0.11 kcal/mol |
| CTTGGCACGTGATAGG | -0.06 kcal/mol |

| Sequence | relative binding free energy |
| --- | --- |
| ATTGTCACGTGCTTGT | -0.14 kcal/mol |
| TGAAACACGTGTTTGA | -0.04 kcal/mol |
| AGGGCCACGTGGGGTA | -0.3 kcal/mol |
| TGTTTCACGTGTTATA | 0.11 kcal/mol |
| CTATGCACGTGATGGG | 0.09 kcal/mol |
| TGCTGCACGTGCAGGT | -0.15 kcal/mol |
| ATAGCCACGTGTAGTG | -0.1 kcal/mol |
| AGGAGCACGTGTTGCT | -0.05 kcal/mol |
| CGAGACACGTGTGGGG | 0.14 kcal/mol |
| CTTGGCACGTGAAGTT | 0 kcal/mol |
| ACGGGCACGTGGGCCG | -0.29 kcal/mol |
| AAAGTCACGTGGCTTA | 0.19 kcal/mol |
| GTGTCCACGTGTTGTA | 0.11 kcal/mol |
| AAGTACACGTGTGCTG | 0.06 kcal/mol |
| GCTATCACGTGTTTTT | 0.2 kcal/mol |
| TTCAACACGTGGGTGG | 0 kcal/mol |
| GGTATCACGTGGGCTG | 0.12 kcal/mol |
| GGGTTCACGTGCGCTT | 0.17 kcal/mol |
| ATTGTCACGTGCGCGT | -0.07 kcal/mol |
| TTGCTCACGTGGAGGG | 0.19 kcal/mol |
| AAGAACACGTGTTTTT | 0.06 kcal/mol |
| AGTGACACGTGGTCGG | -0.09 kcal/mol |
| TCTTGCACGTGTATAT | 0.03 kcal/mol |
| ACGTGCACGTGTTGGA | -0.08 kcal/mol |
| TAGTACACGTGTTGGG | 0.12 kcal/mol |

| Sequence | relative binding free energy |
| --- | --- |
| TGGAGCACGTGGGGAA | -0.09 kcal/mol |
| AGGTTCACGTGGTAGA | 0.16 kcal/mol |
| TAATGCACGTGTAAAT | 0.05 kcal/mol |
| TGGCTCACGTGGGTCG | 0.18 kcal/mol |
| GGCTTCACGTGCAGGG | 0.23 kcal/mol |
| ATGACCACGTGGGTGT | -0.17 kcal/mol |
| TAAGTCACGTGTTCGT | 0.01 kcal/mol |
| ATGAGCACGTGTAGTC | 0.04 kcal/mol |
| ACGTTCACGTGAAGGC | 0.6 kcal/mol |
| GTAGTCACGTGCGTGA | 0.14 kcal/mol |
| ATAGCCACGTGTGGGG | -0.1 kcal/mol |
| GGTAACACGTGAGTGC | 0.25 kcal/mol |
| GTTTCCACGTGTAATG | 0.24 kcal/mol |
| TGGGTCACGTGGTCAT | 0.15 kcal/mol |
| CATGTCACGTGGTGTT | 0.01 kcal/mol |
| AGTGGCACGTGCGGGG | -0.11 kcal/mol |
| ATGGTCACGTGTCGTA | 0.16 kcal/mol |
| TCAAACACGTGGTTGG | 0.1 kcal/mol |
| CGTAGCACGTGGGACG | -0.13 kcal/mol |
| TAGGACACGTGGGTGT | -0.12 kcal/mol |
| GTTAACACGTGAGGGC | 0.27 kcal/mol |
| TTCTGCACGTGGGAAT | -0.15 kcal/mol |
| AATGGCACGTGAAGCG | 0 kcal/mol |
| TATGCCACGTGGTATG | -0.22 kcal/mol |
| AAAGACACGTGGGGGC | -0.06 kcal/mol |

| Sequence | relative binding free energy |
| --- | --- |
| TATTCCACGTGTGTTG | 0.11 kcal/mol |
| CGGGACACGTGGGTAG | -0.13 kcal/mol |
| TTTTCCACGTGGTGTT | -0.07 kcal/mol |
| TATGCCACGTGAGGAG | 0.17 kcal/mol |
| TCTTGCACGTGATCGG | 0.27 kcal/mol |
| TAAATCACGTGGAGGA | 0.12 kcal/mol |
| ATTTTCACGTGTTGTT | 0.26 kcal/mol |
| GTATACACGTGGGTCG | -0.12 kcal/mol |
| ACTAACACGTGTTGTT | 0.06 kcal/mol |
| TTTGACACGTGTCTTA | 0.03 kcal/mol |
| CATATCACGTGAGTGT | 0.14 kcal/mol |
| TATGACACGTGATGTA | 0.07 kcal/mol |
| TAGGCCACGTGTGATG | 0 kcal/mol |
| TTTAGCACGTGTGTCT | -0.01 kcal/mol |
| AATTGCACGTGCATTG | -0.01 kcal/mol |
| CGGGGCACGTGACTGG | -0.05 kcal/mol |
| TGCTGCACGTGTTGTC | 0.12 kcal/mol |
| GTGATCACGTGCATTT | 0.19 kcal/mol |
| TTGGGCACGTGAAGAT | 0.09 kcal/mol |
| TAATTCACGTGGCATT | 0.21 kcal/mol |
| GATATCACGTGGAGGT | 0.26 kcal/mol |
